The source of these data is patent US20190167739A1, “COMPOSITION COMPRISING DUDDINGTONIA FLAGRANS” (INTERNATIONAL ANIMAL HEALTH PRODUCTS PTY LTD, priority 2016, published 2019).

Some results are limits rather than exact numbers.

Data set [1] can be described thus: Stability of flagranone A. Format: physicochemical. Conditions: sealed ampoules in the dark at −80 C., but not −20 C.
Data set [2] can be described thus: Analysis of flagranone A in TGAI batches (HPLC with UV detection).
The nature of data set [3]: Calculated flagranone A intake by treated animals.

On to `CC(=O)OCC1=CC(=O)C2(C(/C=C(C)/C=C/C=C(\C)CCC=C(C)C)OC(C)=O)OC2C1=O` (stereo not drawn) [flagranone A], for which the “Storage stability of pure material” value in data set [1] is on record as “stabilised by storage”. Also, the “Level of flagranone A present” value in data set [2] is on record as “too low to be of toxicological concern”. For the same compound, the “Animal exposure (below level above which residue studies are required)” value in data set [3] is recorded as below 4 μg/kg BW/day.
